From ChEMBL document CHEMBL4888484, “Replenishing the malaria drug discovery pipeline: Screening and hit evaluation of the MMV Hit Generation Library 1 (HGL1) against asexual blood stage Plasmodium falciparum ,using a nano luciferase reporter read-out” (2022) come the findings set out here.

About 540 (0.36%) of roughly 150,000 compounds showed an effect of 50% or more. Some of the results follow.

The assay has as its system Plasmodium falciparum. Description: Primary screen in NF54 nanoGlo assay, in single point, at 2uM, 72h; a lower Z score goes with more inhibition. In kind it is functional, Erythrocyte. The settings on record: timepoint 72 hour.
In the case of `Cc1ccc(CCNC(=O)c2ccccc2N2CCC(=O)NC2=O)s1`, the “% Inhibition” value was 4% and the Z score is listed as -0.44.

In the case of `OCc1nnc(NCc2ccc(OCc3ccccc3)c(OCc3ccccc3)c2)o1`, the “% Inhibition” value is -9% and the Z score was found to be 1.22.

For `CC[C@H](NCc1sccc1Cl)c1c(C)nn(C)c1C`, the “% Inhibition” value amounted to 12% and the Z score is -1.5.

In the case of `Cn1ncc2c1C[C@@H](c1nc(-c3cncs3)no1)CC2`, the “% Inhibition” value is reported as -4% and the Z score is listed as 0.68.

In the case of `CC(C)C1=NO[C@H](C(=O)NCCNS(C)(=O)=O)C1`, the “% Inhibition” value is -1% and the Z score is 0.1.

Turning to `Cc1nc(-c2cnn(C)c2)oc1C(=O)NCCS(=O)(=O)C(C)C`, the “% Inhibition” value is -5% and the Z score is 0.6.

Regarding `Cc1[nH]ncc1C(=O)N1CCC(F)(F)C1`, the “% Inhibition” value is -18% and the Z score is listed as 2.09.

Consider `Cc1ccccc1C(=O)Nc1cc(-c2nnc(C3CC3)o2)sc1C`, for which the “% Inhibition” value is listed as -2% and the Z score amounted to 0.2.

Turning to `CCNC(=O)[C@@H]1CC[C@](C)(C(=O)NCCn2cnnn2)C1(C)C`, the “% Inhibition” value is recorded as -2% and the Z score is 0.21.

Turning to `CN(CCn1ccnc1)Cc1noc2c1CCCC2`, the “% Inhibition” value is 1% and the Z score is -0.15.

Regarding `Cc1ccc(NC(=O)CCOC2CCOCC2)c(C)n1`, the “% Inhibition” value is on record as -5% and the Z score is 0.54.

Take `CC(C)(C)OC(=O)N1CCC(CC(=O)NCc2nccnc2-c2cccs2)CC1`: the “% Inhibition” value is recorded as -6% and the Z score turned out to be 1.18.

Consider `CC(CN1CCCC1=O)NC(=O)C(C)CCc1ccccc1F` (stereo unspecified), for which the “% Inhibition” value is recorded as -6% and the Z score is 0.72.

Turning to `O=C(N[C@H](c1ncccn1)C1CC1)c1ccc(OC(F)F)cc1F`, the “% Inhibition” value is recorded as -11% and the Z score was 1.44.

`COc1ccc(COCC(=O)NCCN2CCS(=O)(=O)CC2)cc1`: the “% Inhibition” value is -11% and the Z score worked out at 1.46.

As to `C[C@H]1Cc2cc(C(=O)NCCc3cnn[nH]3)ccc2O1`, the “% Inhibition” value is 3% and the Z score is -0.51.

Take `CN1CCC(Nc2nnc(-c3nc(C4CC4)no3)c3ccccc23)CC1`: the “% Inhibition” value is -2% and the Z score stood at 0.26.

Consider `O=C(c1ccn2c(-c3ccccc3Br)nnc2c1)N1CCN(c2ccccc2)CC1`, for which the “% Inhibition” value was -4% and the Z score came to 0.44.

Turning to `CCNC(=O)c1c(F)ccc(S(=O)(=O)CC2CC2)c1F`, the “% Inhibition” value is -8% and the Z score is given as 0.95.

`COc1ccnc(N2CCc3[nH]nc([C@@H]4COc5ccccc5O4)c3C2)n1`: the “% Inhibition” value was -10% and the Z score was 1.84.

For `Cc1onc(N)c1S(=O)(=O)N1CCN(Cc2ccncc2)CC1`, the “% Inhibition” value was -10% and the Z score is listed as 1.55.

For `C#Cc1cccc(N(C)C(=O)c2cc(-n3ccnc3)ccn2)c1`, the “% Inhibition” value was -13% and the Z score is listed as 1.85.

Consider `N#Cc1c(-c2ccc3c(c2)OCCO3)cc(-c2ccccn2)nc1N`, for which the “% Inhibition” value is recorded as -2% and the Z score was determined as 0.36.

In the case of `Cc1nnc(-c2coc(S(=O)(=O)N3CCCc4ccccc43)c2)o1`, the “% Inhibition” value is given as -15% and the Z score was determined as 1.93.

As for `CCn1c(C)cc2cc(NC(=O)N3CC(N4CCCC[C@@H]4C)C3)ccc21`, the “% Inhibition” value is given as -11% and the Z score turned out to be 1.24.

Turning to `Cc1ccsc1C(=O)NC(C1CC1)C1CC1`, the “% Inhibition” value is -7% and the Z score is listed as 0.92.

With `CCN(CCOc1ccccc1C)C(=O)Nc1ccc(C)nc1`, the “% Inhibition” value is on record as -9% and the Z score is 1.53.

With `Cc1cc(C)n(C[C@H](C)NCc2noc(-c3ccco3)n2)n1`, the “% Inhibition” value was determined as 0% and the Z score was -0.03.

Consider `COC1(CNC(=O)NC2CC=CC2)CCC1`, for which the “% Inhibition” value was 31% and the Z score was -0.87.

For the molecule `CC(=O)c1ccccc1C(=O)N1CCC(c2nccn2CC2CCC2)CC1`, the “% Inhibition” value is given as -16% and the Z score was determined as 2.52.

Consider `Cn1cnc2c1CCN(c1nccn3ccnc13)C2`, for which the “% Inhibition” value was -8% and the Z score was found to be 0.98.

In the case of `Cc1occc1C(=O)N[C@@H]1COCC[C@@H]1OCc1cscn1`, the “% Inhibition” value is -6% and the Z score is reported as 0.92.

For `O=C1C2CCCN2C(=O)N1C1CCN(c2ccccn2)C1` (stereo unspecified), the “% Inhibition” value is given as -11% and the Z score worked out at 1.68.

Consider `CCn1nc(C2CC2)cc1C(=O)N1CC(=O)Nc2ccccc21`, for which the “% Inhibition” value is given as -5% and the Z score is reported as 0.48.

On to `Cn1cc([C@H](NC(=O)N2CCCC(C)(C)CC2)c2ccc(F)cc2)cn1`, for which the “% Inhibition” value is -14% and the Z score is reported as 1.94.

On to `Cc1cc(C(=O)Cn2cnn(C(C)(C)C)c2=O)c(C)[nH]1`, for which the “% Inhibition” value is 14% and the Z score was -1.88.

Turning to `O=C(NC1CC1)c1coc(CN(CCc2c[nH]c3ccccc23)Cc2cccc(Cl)c2)n1`, the “% Inhibition” value is given as -1% and the Z score worked out at 0.22.

Consider `Cc1ccc(OCCC(=O)NCc2ccc[n+]([O-])c2)cc1C`, for which the “% Inhibition” value is -5% and the Z score is given as 1.01.

As to `CC1(C)CCc2cccc(NC(=O)[C@@]3(C)CCNC(=O)C3)c2O1`, the “% Inhibition” value is recorded as -5% and the Z score is given as 0.66.

Turning to `CC1CCC(CN(C)CCC2OCCO2)CC1` (stereo unspecified), the “% Inhibition” value is reported as -15% and the Z score is reported as 2.18.

In the case of `CC(=O)N(CCC(=O)N(C)Cc1csc(C)n1)Cc1ccccc1`, the “% Inhibition” value is on record as -4% and the Z score was found to be 0.57.

For `O=C(O)C1(Oc2cccc(F)c2)CCN(c2cc(NCCO)ncn2)CC1`, the “% Inhibition” value worked out at 2% and the Z score is -0.29.

In the case of `CO[C@@]1(C(=O)O)CCN(Cc2csc3ccccc23)C1`, the “% Inhibition” value is given as 3% and the Z score is listed as -0.52.
